# Laboratory results reported in the supplement of paper PMC11417369.
# The other results are listed elsewhere or left out.
# Test system: PfSIP2 AP2 domain 1 (GST-tagged)
# Experiment: gcPBM binding intensity (ln(normalized median fluorescence intensity)); higher = stronger DNA binding
# In short: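 For binding intensity, the highest Masliner-normalised natural-log median intensity across replicate spots of either probe orientation was taken. Protein bound to the array was stained with Alexa488 anti-GST antibody and scanned at 488 nm. The protein, GST-tagged P. falciparum DNA-binding domains from E. coli at about 25 μg on average, had been applied for 1 h to an Agilent 4 × 180k array of primer-extended double-stranded 36-bp intergenic genomic probes and negative controls.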
row,Sequence,gcPBM binding intensity (ln)
1,TATTACATTGTTGAATGTACTCATTTAAAATTTATA [XGTACX_site7987],6.76
2,AATCAAAGCCCACATACACACACATATATATATATA [CACACA_site7987],9.39
3,ATGTCAAACATTTGCACACAAAAAAATAAAAATTAA [CACACA_site692],7.22
4,TTTTTTTTTTTTTGCACACACATAATAGGTACAAAT [CACACA_site3577],7.5
5,TTTTTTTTTTTTTTCTCACACATTTAATGATAATAT [CACACA_site5513],7.06
6,CATATTTACTATCACACACACGATATATATAAATAT [CACACA_site1241],7.25
7,ATATAGAACACCTGTGCATGCAAGTGCTAAAAAATT [TGCATGCA_site213],8.43
8,TAATATTATTTAGAGTGTACTCATAAATCAACAAAA [XGTACX_site5269],6.75
9,CTAAGCTAAGTAAGCTGTACTTCACCTTTATACAGT [XGTACX_site3087],6.92
10,CTATTTTTATATTATTGTACGTTGTTATTATATATA [XGTACX_site1469],7.38
11,TTTATATTTATATATACACACATATACATCCTATTT [CACACA_site3079],6.9
12,ATATATATGGAAACAGTGCAATACATATATATATAT,9.5
13,TTTTTCTTAAAAAATTGTACACATATATATATATAT [XGTACX_site542],9.58
14,ATTAAGTTAAACATTACACACTATGTATTATTTATG [CACACA_site973],6.95
15,TTTTTTTTTTTTAATACACACATATTTATATTTATT [CACACA_site7802],6.93
16,AAACAATAAAAGATTACACACATATATAGCATCTAT [CACACA_site5012],6.75
17,TTTCATTTGTCGTTATGTACTTATTAAATATTATTA [XGTACX_site7709],7.43
18,TAAAGTAAAGACATACTTATTTTCCATCCACTTCTT [CACACA_negctrl_site1288],6.79
19,CACATACAGACATACACACATACACATATACGCATA [CACACA_site1745],7.5
20,TCTGTATATTTCGCGCGTACGAACAAATTGATAATT [XGTACX_site7965],7.11
21,ATATATATTTTTATAACACACAATGAAGTACATTAC [CACACA_site8270],7.27
22,ATATAATATGGTATTACACACTGTTAAAAGTATGGC [CACACA_site5190],7.03
23,ATATATATAAAATGTTGTACATATATATAAATAATA [XGTACX_site1661],7.29

row,Sequence,gcPBM binding intensity (ln)
1,CTAAAATACAGACACACACACACATATATATATATA [CACACA_site4150],9.52
2,ATATGCTTATATTATATATATAAGTCTATATATTTT [XGTACX_negctrl_site349],6.78
3,TTAAAATAGGGCGAAGAAATTTTCTGTAAACATTTG [CACACA_negctrl_site1010],6.67
4,GGGTTTTTAAAATGTAGTACATATGTAAACATCAAA [XGTACX_site1262],7.5
5,CATAAATAAGCTTTAGTGCATTATATTTAAATTTTT,7.29
6,AACATCTCATATCGTACTACACTCATATATATATAT [XGTACX_site170],9.38
7,ATAAAATGAACCTTTTGTACATATATATATATATAT [XGTACX_site4610],9.34
8,ATATTATATATATATAAACACACAAATATTTTTATA [CACACA_site8486],7.4
9,TGAATATTTCTATATACACACATATATATATATATA [CACACA_site3451],9.63
10,TTTAATAATAATAAAAGTACACAAATATAAAGGAAA [XGTACX_site5203],7.15
11,AGGTTTTCTTAAATAGTGCATTATAACAAAAATAAA,9.66
12,TCACGTATGTATATTACACACATACATATTATTCAC [CACACA_site4276],7.09
13,CTTTTATTCAAAAGATGTACTTAAATATATATCTAA [XGTACX_site4326],7.17
14,TGCAGTCTGGAGAAACGTACACAGTATCTGGTAACA [XGTACX_site2014],6.84
15,ATGTGTATAATTAAATGTACATATATATATATATAT [XGTACX_site829],9.56
16,ATATATATCGGACACACACACATGTTTTAAAACTAT [CACACA_site4218],7.51
17,ATTTGAAATTGGTAGACACACAATAAAATATCAAAA [CACACA_site447],6.79
18,AAAAAGTTATTATGAACACACATTTATTATAGTCAT [CACACA_site6838],6.81
19,CATATAAATATTTGTGCACACAATTATTAATAATTA [CACACA_site3884],9.35
20,TTAAACTTGAGACACACACACACACGGATATAAAAA [CACACA_site6495],7.19
21,TATATATTTATTTATAGTACACTATTTATGAAAACC [XGTACX_site3062],7.33
22,CATTATTATTAACATACACACGTGTTATATACCCCC [CACACA_site9365],8.48
23,TAACATAAATTTAGGAGTACACTTTTTATACATACA [XGTACX_site4066],7.08

row,Sequence,gcPBM binding intensity (ln)
1,AAATTCACAATGTTTGGTACACATAAAAAAAAAAGA [XGTACX_site7109],7.04
2,AAAAATTTTTTTTTTTTTTTAAATAATAAAAATGAA [CACACA_negctrl_site1435],6.78
3,TATTATTATTTTATGGTGCAAAAAAAAAAAAAAAAA,10.6
4,AACATACGACAATACGCACACATATCTGTACATATT [CACACA_site5115],7.15
5,AATAAAATGGAATACGGTACACATAATCCTAAAATG [XGTACX_site926],6.95
6,ATATTATAAAATAAAAGTACACAATTATATATATAT [XGTACX_site8812],8.6
7,TATTTTTAAAATTAAATGAATAAATAAATAAATATA [XGTACX_negctrl_site553],6.77
8,TATCACTATAGACAAGCATGCATATGTACTAATATC [TGCATGCA_site1020],7.1
9,ATAAAAATAAACATACGTACTTACACGAATATACAT [XGTACX_site5989],7.09
10,CTTGAAAAAATAAAAACACACAATGTGTTTTTGAAT [CACACA_site3283],6.66
11,TTAGATTTAAATATCATACACACTTTATATATAATA [CACACA_site959],6.88
12,ATATTACTATATTATTGTACGTTAAAAAAAAAAAAT [XGTACX_site8734],7.11
13,TTTCTAAATAATTATAATGAATCTGCAAACAAGCAT [XGTACX_negctrl_site391],6.8
14,AATAAATAAATAAATAAATATATATATATATATATA [GTGCAC_negctrl_site224],9.48
15,TTATATTAAAAAAGATGTACGTTTAGGAAAAATATA [XGTACX_site7456],7
16,TGTATATATATCTCAGTGCATTGCAAATTAAAAATT [GTGCAC_site9646],8.16
17,ATACTCACGTGACACACACACAATATAAATAAATAT [CACACA_site7862],7.27
18,GGCTTTTTTTAATATGCACACATATATTTTATATAT [CACACA_site8647],7.54
19,TATAATAATCTAATCTGTAGTTTTTTTTTTTTTTTT [CACACA_negctrl_site1206],7.31
20,AAAAAAAAACAGAAAACACACAAATTATCTTATAAT [CACACA_site4326],6.75
21,AGCACACAAAAAAAAAAAAAAAAAAAAAAAGGAATG [GTGCAC_negctrl_site73],6.94
22,TATGTATTCATATGTTGTACATTATATATAATAAGT [XGTACX_site6589],7.36
23,AAATCAGAACCTATTTGTACATATACAAAAATGATT [XGTACX_site2421],6.68

row,Sequence,gcPBM binding intensity (ln)
1,TTTTAATTAGCTAGACGTACAATAATATACAAATAT [XGTACX_site6068],7.51
2,CATATGTAGGGAACAATATAATATGCTTTGAATATG [GTGCAC_negctrl_site524],6.87
3,ATTTTTTTAAGATAAGAAAAATAAAGTGTGGATATT [XGTACX_negctrl_site476],7.22
4,TTCCTTATTATTATTTTACACACGTCCTAATAAGAG [CACACA_site8364],7.09
5,GCTTGTACATTTTTAAAAAATGACTTCGAAAGGAAT [CACACA_negctrl_site453],7.39
6,TTTATGCATAGAGAAACATGCAAGAAAGATGCAAAA [TGCATGCA_site726],7.32
7,ATTATGTATACATAAACACACATATTTATAAAAAAA [CACACA_site6261],7.15
8,ATATATTTATATATATGTACATATTATGTTAAGAAA [XGTACX_site1111],7.04
9,TTAATATGAAATAAATGTACATAATACATAATAAAA [XGTACX_site6194],6.87
10,GTTTTTAGTATTTTTTGTACTTAATACATAGCCTTA [XGTACX_site7318],6.85
11,AATTGAAAAATATATAAGAAGAAATATATATATGTT [GTGCAC_negctrl_site97],6.95
12,AACACGCGCGGACACACACACACACCCACATATATA [CACACA_site5252],7.16
13,ATTTATATCTCCATATGTTCAAAACTTTCACAAATA [TGCATGCA_negctrl_site108],7.18
14,AATATAAATTAATTTACACACTAAAAAATATATATA [CACACA_site3778],7
15,AAAATAAGTAATTACTAATATATAAATTAATAATTA [CACACA_negctrl_site1602],6.67
16,AAATAGAAGAAATATGCACACATACATTGAAATGTT [CACACA_site7996],7.47
17,TTTTCTTCATAAATGCTGCACTGGTTTAAGCATGAT,7.85
18,TTTATTAATAAACACACACACACACCCAAAATAAAA [CACACA_site7966],7.35
19,AAAGAAAAAAAAATTACACACATATATTATATATAT [CACACA_site3211],7.71
20,CCTTAATATTTTTGAAGTACATATTTATTTTACAAG [XGTACX_site3049],7.37
